SMILES strings stand for the structures. Among all 390,000 compounds or so, about 610 (0.16%) were called active. Not shown: some 4% with an inconclusive outcome. Calls come from the whole dose curve; as a rule, active = well fitted inhibition curve with a large enough effect; inconclusive = small, poorly fitted or top-dose-only effect, or effect the other way, or another doubt; inactive = no such curve, though single readings can be large or run the other way. Only a part is listed here, and it is no random draw.
% is set by controls: 0 for no effect and ±100 for the full control effect; potency is the fitted concentration of half-maximal effect.

This assay can be described thus: Nrf2 qHTS screen for inhibitors: counterscreen for cytotoxicity. To be noted: A549 ARE-Fluc cells, CellTiter-Fluor viability, 18-24 h; series mostly up to 46 µM; activity change, negative = cytotoxicity: at the top concentration. The text has this:
NIH Molecular Libraries Probe Production Network [MLPCN]
NIH Chemical Genomics Center [NCGC]
Assay Provider: Shyam Biswal, Johns Hopkins University
Nrf2 is a transcription factor that maintains cellular redox homoestasis and protects cells from xenobiotics. Nrf2 binds to the antioxidant response element (ARE) to induce gene expression of a broad spectrum of genes that encode for antioxidants. […] Finding a small molecule that act as an inhibitor of Nrf2 function would represent a novel therapeutic target that could lead to improvement in survival of patients undergoing chemo- and/or radio- therapy.
So here we implemented a counterscreen to weed out the cytotoxic compounds.
1. Shibata, T., et al., Genetic Alteration of Keap1 Confers Constitutive Nrf2 Activation and Resistance to Chemotherapy in Gallbladder Cancer. Gastroenterology, 2008.
2. Sjoblom, T., et al., The consensus coding sequences of human breast and colorectal cancers. Science, 2006. 314(5797): p. 268-74.
NCGC Assay Protocol Summary:
A concentration-response assay was performed with A549 ARE_Fluc cells which are suspended in 5% FBS OPTI-MEM. Five uL were dispensed into 1536-well white TC-treated plate using the Kalypsys dispenser to achieve a density of 5000 cells/well in all columns except column 1. The plate is incubated at 37deg C at 5% CO2 for 2 hours before 23 nL of compounds are added with the Kalypsys pin tool equipped with a 1,536-pin array containing 10-nL slotted pins (FP1S10, 0.457-mm diameter, 50.8 mm long; V&P Scientific). The control compounds Budesonide and Staurosporine are both added at a concentration of 2mM and Budesonide is also added as a 1:10 titration, starting at 200uM, to achieve dose-response. After an 18-24 hour incubation at 37deg C at 5% CO2, 5ul of medium is added to column 1. Afterwards 1ul of 5x of CellTiter-Fluor (Promega) is added to every well. The plate is then incubated at 37deg C at 5% CO2 for 30 minutes before they are read on the ViewLux (Perkin Elmer) for a fluorescent read Ex=405(10)/Em=525(10) for a 3 second exposure, 2x binning, and high gain. Then 3 uL of 3x BugLite is dispensed into all wells and the plate is incubated at ambient room temperature for 15 minutes. Afterwards another ViewLux read is performed using the clear filter to get a luminescent read with the settings of 40 second exposure, 2x binning, and high gain. Cytotoxicity is assessed through the first fluorescent read and then biochemical activity against Nrf2 is measured in the luminescent read.
With `COc1ccc(OC)c(S(=O)(=O)Nc2ccc3c(c2)n(C)c(=O)n3C)c1`, the “activity change, negative = cytotoxicity” value was inactive: -9.68%.
Take `Fc1ccc([C@@H]2CCNC[C@H]2COc2ccc3c(c2)OCO3)cc1`: the “activity change, negative = cytotoxicity” value was inactive: -2.01%.
Regarding `O=C(CCCN1C(=O)/C(=C/c2cccs2)SC1=S)Nc1ccc(O)cc1`, the “activity change, negative = cytotoxicity” value is inactive: -5.78%.
As for `Cc1cc(/C=C2\SC(=O)NC2=O)c(C)n1-c1ccc(N2CCOCC2)cc1`, the “activity change, negative = cytotoxicity” value was inactive: -4.13%.
Regarding `O=C1/C(=C\c2ccc(Cl)c(Cl)c2)CN(C(=O)CCN2CCOCC2)C/C1=C/c1ccc(Cl)c(Cl)c1`, the Potency is active: 20.6 µM.
On to `C=CC[C@H](CC(=O)N[C@H](CO)Cc1ccccc1)C(=O)N[C@H](COC(=O)[C@@H](CC=C)Cc1ccc(F)cc1)Cc1c[nH]c2ccccc12`, for which the “activity change, negative = cytotoxicity” value is inactive: 0.09%.
Turning to `CCc1cccc2c(C(=O)COC(=O)c3ccc([N+](=O)[O-])s3)c[nH]c12`, the Potency is active: 20.6 µM.
As to `CC(C)(C)[C@H]1COC(=O)[C@H](NC(=O)OCC2c3ccccc3-c3ccccc32)C/C=C\C[C@@H](CC(=O)N[C@@H](CO)Cc2ccccc2)C(=O)N1`, the “activity change, negative = cytotoxicity” value was inactive: -18.8%.
Same read-out and setting: the same measure for `CC1CCN(CCCNC(=O)CN2C(=O)CSc3ccc(S(=O)(=O)N4CCC(C)CC4)cc32)CC1`: inactive: -0.547%; for `C=CC[C@@H](CC(=O)N[C@H](CO)Cc1ccccc1)C(=O)NC[C@@H](OC(=O)[C@@H](CC=C)Cc1ccc(F)cc1)c1ccccc1`: inactive: -1.39%.
As to `Cn1nc(-c2ccncc2)nc2c(=O)n(C)c(=O)nc1-2`, the Potency was active: 2.91 µM.
On the same count and under the same terms, next, `CN1CCc2c(sc(NC(=O)c3ccc([N+](=O)[O-])o3)c2C(N)=O)C1`: active: 20.6 µM.
On to `O=C(NCc1ccccc1)C1=C[C@H](C2CCCCC2)C[C@H](OCc2ccc(CO)cc2)O1`, for which the “activity change, negative = cytotoxicity” value is inactive: 1.45%.
On to `Fc1ccc(Nc2nc3nonc3nc2Nc2cccc(C(F)(F)F)c2)cc1`, for which the Potency was active: 8.2 µM.
Consider `COc1cc(C(=O)O[C@H]2C/C(C)=C/CC[C@]3(C)O[C@@H]3C(O)C2C(C)C)cc(OC)c1OC` (stereo partly specified), for which the “activity change, negative = cytotoxicity” value was inactive: -1.63%.
Same read-out and setting: next, `Cc1nn(Cc2ccc(Cl)cc2)c(C)c1NC(=O)c1noc2c1CCc1ccccc1-2`: inactive: 0.412%; `O=C(CCSCc1ccccc1Cl)N1CCN(c2cccc(Cl)c2)CC1`: inactive: -0.342%.
Consider `C/C=C(/C)C(=O)O[C@@H]1c2c(ccc3ccc(=O)oc23)OC(C)(C)[C@@H]1OC(=O)/C(C)=C\C`, for which the “activity change, negative = cytotoxicity” value was inactive: -11.6%.
For the compound `O=c1cc(-c2ccc(O)c(O)c2)oc2cc(O)c([C@@H]3O[C@H](CO)[C@@H](O)[C@H](O)[C@H]3O)c(O)c12`, the “activity change, negative = cytotoxicity” value was inactive: -17.9%.
In the case of `OCCN(CCO)CC(O)COc1ccc(Br)cc1` (stereo unspecified), the “activity change, negative = cytotoxicity” value is inactive: 2.49%.
Regarding `CC(C)Cn1cnc2c(c(-c3ccccc3)c(-c3ccccc3)n2Cc2ccco2)c1=N`, the Potency was active: 23.1 µM.
Take `C=CCC[C@H](Cc1ccc(F)cc1)C(=O)OC[C@@H](C)NC(=O)[C@@H](CC=C)CC(=O)N[C@@H](CO)Cc1ccccc1`: the “activity change, negative = cytotoxicity” value is inactive: -1.93%.
For the compound `CC1OC(Nc2ccc(N=Nc3ccccc3)cc2)C(O)C(O)C1O` (stereo unspecified), the “activity change, negative = cytotoxicity” value was inactive: -26.5%.
Take `C=CC[C@@H](CC(=O)N(CCO)Cc1ccccc1)C(=O)NC[C@H](OC(=O)[C@@H](CC=C)CC(=O)OC(C)(C)C)c1ccccc1`: the “activity change, negative = cytotoxicity” value was inactive: -19%.
As to `CCCCCCCCCCCCCCCC[n+]1ccccc1`, the “activity change, negative = cytotoxicity” value was inactive: -16.3%.
Same read-out and setting: the same measure for `O=C(C[C@H]1C/C=C\C[C@@H](Cc2ccc(F)cc2)C(=O)O[C@@H](c2ccccc2)CNC1=O)N[C@@H](CO)Cc1ccccc1`: inactive: -13.6%.
On to `Cc1ccc(C)c(N2CCN(CCCNC(=O)c3cnn(-c4ccc(F)cc4)c3C3CCN(C(=O)OC(C)(C)C)CC3)CC2)c1`, for which the Potency is active: 18.4 µM.
In the case of `CC(C)(C)OC(=O)C[C@@H]1C/C=C\C[C@@H](CC(=O)N(CCO)Cc2ccccc2)C(=O)NC[C@@H](c2ccccc2)OC1=O`, the “activity change, negative = cytotoxicity” value is inactive: -7.32%.
On to `COc1ccccc1NC(=O)Cc1csc(NC(=S)Nc2ccccc2)n1`, for which the Potency is active: 18.4 µM.
For the compound `CCN(CC)C(=O)CC(c1ccc2c(c1)OCO2)c1c(OC)cc(OC)c2ccc(=O)oc12` (stereo unspecified), the “activity change, negative = cytotoxicity” value was inactive: -11.6%.
In the case of `O=C(C1=C[C@@H](c2ccc(C(F)(F)F)cc2)C[C@@H](OCCCCO)O1)N1CCN(Cc2ccccc2)CC1`, the “activity change, negative = cytotoxicity” value was inactive: -12%.
As to `O=C(C[C@H]1C/C=C\C[C@H](Cc2ccc(F)cc2)C(=O)O[C@@H](c2ccccc2)CNC1=O)N[C@@H](CO)Cc1ccccc1`, the “activity change, negative = cytotoxicity” value is inactive: -13.5%.
On the same count and under the same terms, next, `O=C(NCc1nc2ccccc2[nH]1)C1=C[C@H](C2CCCCC2)C[C@H](OCc2ccc(CO)cc2)O1`: inactive: -24.9%; `O=C1CCN(CCc2ccccc2)CCN1[C@H](CSc1ccc(Br)cc1)Cc1ccccc1`: inactive: -12.6%; `O=C(NCCCO)c1ccc2nc(-c3ccco3)c(-c3ccco3)nc2c1`: inactive: -19%.
`OC[C@@H](O)[C@@H](O[C@@H]1O[C@H](CO)[C@H](O)[C@H](O)[C@H]1O)[C@H](O)[C@@H](O)CO`: the “activity change, negative = cytotoxicity” value is inactive: -2.86%.
For the compound `N#Cc1nc(Nc2cccc(Cl)c2)c2ncn(C3CCCC3)c2n1`, the “activity change, negative = cytotoxicity” value is inactive: -21.2%.
Turning to `Cc1ccc(Nc2nc(N)nc(CSc3nc4ccccc4s3)n2)cc1`, the “activity change, negative = cytotoxicity” value was inactive: -4.26%.
On to `COc1ccc([C@@H]2C[C@H](c3ccccc3)Oc3cc(OC)c(OC)c(OC)c32)cc1`, for which the “activity change, negative = cytotoxicity” value was inactive: 15.3%.
Turning to `CN1/C(=C/c2cccc[n+]2C)Sc2ccccc21`, the Potency is active: 11.6 µM.
Take `COc1cc(O)c(C(CC(=O)N2CCN(c3ccccc3)CC2)c2ccc(N(C)C)cc2)c(OC)c1` (stereo unspecified): the “activity change, negative = cytotoxicity” value is inactive: 4.65%.
